# Laboratory results as given in paper PMC4336329 (PLoS ONE, 2015).
# The campaign covered roughly 310,000 compounds. About 2,200 (0.71%) showed an effect of 50% or more. The effect is printed as a negative number. Some of the results follow.
# Target: human ether-à-go-go-related gene (hERG) potassium channel (human, UniProt Q12809)
# Assay: primary screen, population patch clamp on CHO cells stably expressing hERG
# Chain of human ether-à-go-go-related gene (hERG) potassium channel (Q12809 whole entry, looked up): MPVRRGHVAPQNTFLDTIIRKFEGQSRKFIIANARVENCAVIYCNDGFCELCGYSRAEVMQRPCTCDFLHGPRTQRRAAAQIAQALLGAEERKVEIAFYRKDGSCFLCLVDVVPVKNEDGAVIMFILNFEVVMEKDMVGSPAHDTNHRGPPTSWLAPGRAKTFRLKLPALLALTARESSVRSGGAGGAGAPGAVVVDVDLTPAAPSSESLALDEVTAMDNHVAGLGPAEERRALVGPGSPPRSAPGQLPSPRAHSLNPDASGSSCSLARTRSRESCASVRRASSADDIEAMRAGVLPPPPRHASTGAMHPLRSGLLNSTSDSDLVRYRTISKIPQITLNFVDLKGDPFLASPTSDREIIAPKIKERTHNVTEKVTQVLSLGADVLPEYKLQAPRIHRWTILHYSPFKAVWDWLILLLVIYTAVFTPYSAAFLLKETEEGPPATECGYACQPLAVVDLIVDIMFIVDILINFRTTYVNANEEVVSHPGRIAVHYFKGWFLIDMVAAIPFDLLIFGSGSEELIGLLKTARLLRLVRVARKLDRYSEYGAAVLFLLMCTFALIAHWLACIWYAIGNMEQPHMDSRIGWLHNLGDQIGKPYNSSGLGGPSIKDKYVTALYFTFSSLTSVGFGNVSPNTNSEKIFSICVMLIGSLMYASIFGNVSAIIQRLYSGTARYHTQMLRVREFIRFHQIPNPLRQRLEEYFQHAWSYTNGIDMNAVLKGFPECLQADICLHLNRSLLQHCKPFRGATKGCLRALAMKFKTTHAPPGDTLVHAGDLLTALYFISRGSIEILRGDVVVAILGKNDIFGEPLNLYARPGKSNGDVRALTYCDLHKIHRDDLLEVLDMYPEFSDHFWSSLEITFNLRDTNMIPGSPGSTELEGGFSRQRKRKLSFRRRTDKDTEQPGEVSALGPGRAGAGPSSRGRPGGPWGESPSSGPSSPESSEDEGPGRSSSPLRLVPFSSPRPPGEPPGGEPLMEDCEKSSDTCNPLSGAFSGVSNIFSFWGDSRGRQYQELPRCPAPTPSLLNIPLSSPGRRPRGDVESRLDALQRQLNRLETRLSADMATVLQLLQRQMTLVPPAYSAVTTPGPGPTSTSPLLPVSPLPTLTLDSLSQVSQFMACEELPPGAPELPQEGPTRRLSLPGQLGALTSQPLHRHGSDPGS
row,Structure (SMILES),"hERG current change (%, negative = inhibition) at 1uM [%]"
1,Cc1ccc(-n2nnnc2SCC(=O)Nc2ccccc2N2CCCCC2)cc1C,16.2
2,C=C1CCN([C@@H](Cc2ccccc2)C(=O)NC2CCN(Cc3ccccc3)CC2)S(=O)(=O)c2ccccc21,10.4
3,Cc1cc(C)c(NC(=O)CSc2nc3[nH]ncc3c(=O)[nH]2)c(C)c1,16.3
4,COC(=O)C1=C(SC)N(c2ccccc2)C(c2ccccc2)CC1=O (stereo not drawn),7.42
5,CC(Sc1nncn1-c1ccccc1)C(=O)Nc1cccc([N+](=O)[O-])c1 (stereo not drawn),1.72
6,Cc1ccc(S(=O)(=O)Nc2ccccc2CNc2ccccn2)cc1,11.1
7,Cn1c(OCc2ccc3c(c2)OCO3)nc2c1c(=O)n(Cc1ccc(Cl)c(Cl)c1)c(=O)n2C,-2.01
8,COc1ccc(OC)c(/C=C2\SC(N3CCCCC3)=NC2=O)c1,2.01
9,Cc1[nH]c2ccc(OCc3ccccc3)cc2c1CCN.Cl,14.8
10,CC(C)(C)c1ccc(OCCC(=O)NC2=NCCS2)cc1,14.3
11,Cc1cc(C)n(C(=O)CNC(=O)C(c2ccccc2)c2ccccc2)n1,5.62
12,Cc1ccc(C2C3=C(CC(C)(C)CC3=O)Nc3n[nH]c(C)c32)cc1 (stereo not drawn),-0.291
13,COc1cccc(CC2(CO)CCCN(Cc3cn[nH]c3-c3cc(C)ccc3C)C2)c1 (stereo not drawn),-7.67
14,CC(C)c1cc(C(=O)Nc2cc(Cl)ccc2O)no1,7.84
15,CCC(C)n1ncn(-c2ccc(N3CCN(c4ccc(O)cc4)CC3)cc2)c1=O (stereo not drawn),3.22
16,CC(C)(C)NC(=O)COC(=O)CCC(=O)c1cccs1,11
17,CN(CCc1ccccc1)c1ccc([N+](=O)[O-])cn1,13.5
18,NS(=O)(=O)c1ccc(CNC(=O)COc2ccc3c4c(c(=O)oc3c2)CCCC4)cc1,17.4
19,CCC(C)(C)NC(=O)CN(C(=O)c1ccc(N2CCCC2)nc1)c1ccc(F)cc1,16.1
20,CC(C)n1c(SCC(=O)NC2CC2)nnc1-c1ccco1,11.8
21,O=C(Nc1ncccc1Cl)c1cc2ccccc2o1,14.2
22,NS(=O)(=O)c1ccc(CCNC(=O)C2CCCN2S(=O)(=O)c2cccc3nsnc23)cc1 (stereo not drawn),16.5
23,Cc1onc(-c2ccccc2)c1C(=O)NCC(O)c1ccccc1 (stereo not drawn),6.14

row,Structure (SMILES),"hERG current change (%, negative = inhibition) at 1uM [%]"
1,O=C(NCc1ccc(C(=O)N2CCC3(CC2)OCCO3)cc1)c1cccc(Br)c1,19.7
2,O=C(NC1CC1)c1ccc2c(Cl)c3c(nc2c1)CCCC3,-25.6
3,Nc1n[nH]c2cc(=O)n(-c3ccc(Cl)cc3)nc12,12.8
4,CNC(=O)CSc1nc2nn(-c3ccccc3)c(=O)c-2c2n1CCCCC2,-9.14
5,O=C(O)C1Cc2ccccc2CN1C(=O)COc1ccc(Br)cc1 (stereo not drawn),18.5
6,Cl.NCCc1nnc(SCc2c(Cl)cccc2Cl)o1,8.57
7,COCCNC(=S)N1CCN(S(=O)(=O)c2ccc(Cl)s2)CC1,4.26
8,O=C1N/C(=N\N=C\c2cccs2)SC1Cc1ccc(Cl)cc1Cl (stereo not drawn),-2.8
9,O=C(NCCCN1CCOCC1)c1ccc(CS(=O)(=O)Cc2ccccc2Cl)o1,9.53
10,Cc1csc(NC(=O)C2CCCN2C(=O)OCC(C)C)n1 (stereo not drawn),13.2
11,O=C(Oc1ccccc1C(=O)N1CCOCC1)c1cccc(Br)c1,6.19
12,COC(=O)c1cc2sc(Cl)cc2n1CC(=O)N1CCCc2ccccc21,3.75
13,COc1ccc(C2C(C#N)=C(N)Oc3c2ccc2cccnc32)cc1OC (stereo not drawn),3.43
14,Cc1sc2nc(CSc3cccc(C(F)(F)F)c3)[nH]c(=O)c2c1C,13.4
15,CN(C)CCCN(C(=O)COc1ccccc1)c1nc2cc3c(cc2s1)OCO3.Cl,-28.2
16,O=C(Nc1ccc2ccccc2c1)c1cnccn1,6.42
17,COc1ccc(CNC(=O)C2(CC3CC(c4ccccc4)=NO3)CCN(C(=O)OC(C)(C)C)CC2)cc1 (stereo not drawn),2.59
18,COc1cccc([C@@H]2CC=C(C(=O)O)CN2S(=O)(=O)c2ccc(C)cc2)c1,17.7
19,CN(C)S(=O)(=O)c1ccc(Cl)c(NC(=O)CSc2nc3ccccc3c(=O)n2CCCN2CCOCC2)c1,-14.7
20,Cc1ccc(OCCNC(=O)c2ccc(NC(=O)CC3SC(N4CCCC4)=NC3=O)cc2)cc1 (stereo not drawn),-6.94
21,CCCn1c(SCC(=O)Nc2ccc(OC)cc2[N+](=O)[O-])n[nH]c1=O,2.55
22,CC1CCCN(C(=O)c2sc3cc([N+](=O)[O-])ccc3c2Cl)C1 (stereo not drawn),-0.9
